Laboratory results: EPA's CvTdb concentration-time database
Further values from the same series stand in other lists.

Tests used:
Assay in all cases: concentration in plasma after dosing
Rat [1] = settings: 2 h; dosed: Di-n-butyl phthalate; 200 mg/kg; oral; Male; Sprague-Dawley
Rat [2] = settings: 1 h; dosed: Di-n-butyl phthalate; 200 mg/kg; oral; Male; Sprague-Dawley
Rat [3] = settings: 5 min; dosed: Di-n-butyl phthalate; 200 mg/kg; oral; Male; Sprague-Dawley
Rat [4] = settings: 1 h; dosed: Di-n-butyl phthalate; 200 mg/kg; oral; Male; Sprague-Dawley; remark: listed apart in the source
Rat [5] = settings: 6 h; dosed: Di-n-butyl phthalate; 200 mg/kg; oral; Male; Sprague-Dawley
Rat [6] = settings: 24 h; dosed: Di-n-butyl phthalate; 200 mg/kg; oral; Male; Sprague-Dawley
Rat [7] = settings: 0.25 h; dosed: Di-n-butyl phthalate; 200 mg/kg; oral; Male; Sprague-Dawley
Rat [8] = settings: Male
Rat [9] = settings: 15 h; dosed: Di-n-butyl phthalate; 200 mg/kg; oral; Male; Sprague-Dawley
Rat [10] = settings: 10 h; dosed: Di-n-butyl phthalate; 200 mg/kg; oral; Male; Sprague-Dawley
Rat [11] = settings: 24 h; dosed: Di-n-butyl phthalate; 200 mg/kg; oral; Male; Sprague-Dawley; remark: listed apart in the source
Rat [12] = settings: 0.25 h; dosed: Di-n-butyl phthalate; 200 mg/kg; oral; Male; Sprague-Dawley; remark: listed apart in the source
Rat [13] = settings: 3 h; dosed: Di-n-butyl phthalate; 200 mg/kg; oral; Male; Sprague-Dawley
Rat [14] = settings: 0.5 h; dosed: Di-n-butyl phthalate; 200 mg/kg; oral; Male; Sprague-Dawley
Rat [15] = settings: 3 h; dosed: Di-n-butyl phthalate; 200 mg/kg; oral; Male; Sprague-Dawley; remark: listed apart in the source
Rat [16] = settings: 5 min; dosed: Di-n-butyl phthalate; 200 mg/kg; oral; Male; Sprague-Dawley; remark: listed apart in the source
Rat [17] = settings: 0.5 h; dosed: Di-n-butyl phthalate; 200 mg/kg; oral; Male; Sprague-Dawley; remark: listed apart in the source
Rat [18] = settings: 15 h; dosed: Di-n-butyl phthalate; 200 mg/kg; oral; Male; Sprague-Dawley; remark: listed apart in the source
Rat [19] = settings: 10 h; dosed: Di-n-butyl phthalate; 200 mg/kg; oral; Male; Sprague-Dawley; remark: listed apart in the source
Rat [20] = settings: 6 h; dosed: Di-n-butyl phthalate; 200 mg/kg; oral; Male; Sprague-Dawley; remark: listed apart in the source
Rat [21] = settings: dosed: Nitrite, 20 mg/kg, iv, Male, F344
Rat [22] = settings: dosed: Nitrite, 20 mg/kg, iv, Male, F344; remark: listed apart in the source
Rat [23] = settings: dosed: Nitrite, 20 mg/kg, iv, Male, F344; remark: listed apart in the source
Rat [24] = settings: dosed: Nitrite, 20 mg/kg, iv, Male, F344; remark: listed apart in the source
Rat [25] = settings: dosed: Nitrite, 20 mg/kg, iv, Male, F344; remark: listed apart in the source
Rat [26] = settings: dosed: Nitrite, 20 mg/kg, iv, Male, F344; remark: listed apart in the source
Rat [27] = settings: dosed: Nitrite, 20 mg/kg, iv, Male, F344; remark: listed apart in the source
Rat [28] = settings: dosed: Nitrite, 20 mg/kg, iv, Male, F344; remark: listed apart in the source

CCCCOC(=O)c1ccccc1C(=O)O [Mono-n-butyl phthalate]
Settings | concentration in plasma [ng/mL]
Rat [1] | 53400
Rat [2] | 102000
Rat [3] | 1800
Rat [4] | 164000
Rat [5] | 19500
Rat [6] | 706
Rat [7] | 61100
Rat [9] | 2100
Rat [10] | 4040
Rat [11] | 1370
Rat [12] | 45900
Rat [13] | 10500
Rat [14] | 126000
Rat [15] | 24100
Rat [16] | 3720
Rat [17] | 113000
Rat [18] | 2160
Rat [19] | 10100
Rat [20] | 31800

Rat [8], dosed: Di-n-butyl phthalate, 200 mg/kg, oral, Sprague-Dawley
Settings | concentration in plasma [ng/mL]
0.25 h | 31400
0.5 h | 126000
1 h | 102000
2 h | 107000
3 h | 12500
5 min | 4400
6 h | 34300
10 h | 6760
15 h | 1970
24 h | 407

O=N[O-] [Nitrite]
Rat [8], dosed: Nitrite, 20 mg/kg, iv, F344
Settings | concentration in plasma [ng/mL]
0.5 h | 9800
0.75 h | 7300
1 h | 3600
1.25 h | 2100
2 h | 2000
5 min | 4300
10 min | 7400
20 min | 4000

Settings | concentration in plasma [ng/mL]
Rat [21], 1.25 h | 3200
Rat [21], 10 min | 13600
Rat [22], 1.25 h | 4100
Rat [22], 10 min | 22300
Rat [23], 1.5 h | 2800
Rat [23], 20 min | 9900
Rat [24], 0.5 h | 5100
Rat [24], 2 h | 2300
Rat [25], 0.5 h | 10300
Rat [25], 2 h | 1900
Rat [26], 1 h | 3400
Rat [26], 5 min | 5600
Rat [27], 1 h | 5600
Rat [27], 5 min | 13600
Rat [28], 1.5 h | 2900
Rat [28], 20 min | 4700
